B1: PhoQ; a variant is named by its letters at X, in order, P23837 (parent)
chain: MKKLLRLFFPLSLRVRFLLATAAVVLVLSLAYGMVALIGYSVSFDKTTFRLLRGESNLFYTLAKWENNKLHVELPENIDKQSPTMTLIYDENGQLLWAQRDVPWLMKMIQPDWLKSNGFHEIEADVNDTSLLLSGDHSIQQQLQEVREDDDDAEMTHSVAVNVYPATSRMPKLTIVVVDTIPVELKSSYMVWSWFIYVLSANLLLVIPLLWVAAWWSLRPIEALAKEVRELEEHNRELLNPATTRELTSLVRNLNRLLKSERERYDKYRTTLTDLTHSLKTPLXXLQXXLRSLRSEKMSVSDAEPVMLEQISRISQQIGYYLHRASMRGGTLLSRELHPVAPLLDNLTSALNKVYQRKGVNISLDISPEISFVGEQNDFVEVMGNVLDNACKYCLEFVEISARQTDEHLYIVVEDDGPGIPLSKREVIFDRGQRVDTLRPGQGVGLAVAREITEQYEGKIVAGESMLGGARMEVIFGRQHSAPKDE

Some of the results follow. Where only a bound is given, the exact number is not on record here.

Variants of B1 are the subject of this assay. The experiment in a line: enrichment ratio after two sorts for PhoP signalling (ratio (wild type AVST 3.29)); higher = more functional. The note with it: with PhoP (E. coli).
Turning to NYDR, the enrichment ratio is ≤ 0.25.

Turning to NTAP, the enrichment ratio was ≤ 0.25.

On to FFWM, for which the enrichment ratio was ≤ 0.25.

For the variant YDGK, the enrichment ratio was ≤ 0.25.

In the case of HRYG, the enrichment ratio is ≤ 0.25.

On to AASF, for which the enrichment ratio stood at 10.1.

As to VLQR, the enrichment ratio is ≤ 0.25.

Turning to AKNY, the enrichment ratio is ≤ 0.25.

On to VVEV, for which the enrichment ratio was ≤ 0.25.

YCIT: the enrichment ratio was ≤ 0.25.

Regarding TFII, the enrichment ratio is ≤ 0.25.

For WPMV, the enrichment ratio was ≤ 0.25.

Take SEVA: the enrichment ratio was found to be 10.3.

In the case of SCWC, the enrichment ratio was ≤ 0.25.

In the case of NDDI, the enrichment ratio was ≤ 0.25.

With PVLL, the enrichment ratio is ≤ 0.25.

For the variant RPSH, the enrichment ratio is ≤ 0.25.

On to ADIV, for which the enrichment ratio came out at 12.5.

Turning to FWRP, the enrichment ratio was ≤ 0.25.

As for SEHA, the enrichment ratio was ≤ 0.25.

For the variant SHQD, the enrichment ratio is ≤ 0.25.

For LQPM, the enrichment ratio was ≤ 0.25.

Consider EQAM, for which the enrichment ratio was ≤ 0.25.

Regarding FYPS, the enrichment ratio was ≤ 0.25.

For YWNK, the enrichment ratio is ≤ 0.25.

Turning to AEMY, the enrichment ratio was 20.4.

Take NWKP: the enrichment ratio was ≤ 0.25.

Turning to PYIP, the enrichment ratio was ≤ 0.25.

On to MTLQ, for which the enrichment ratio was 10.8.

Consider HMMK, for which the enrichment ratio is ≤ 0.25.

With PFLF, the enrichment ratio was ≤ 0.25.

With QFIR, the enrichment ratio is ≤ 0.25.

NSHN: the enrichment ratio was ≤ 0.25.

As for VVEF, the enrichment ratio is ≤ 0.25.

As to RYWQ, the enrichment ratio was ≤ 0.25.

For the variant QSVF, the enrichment ratio was ≤ 0.25.

Regarding EIAA, the enrichment ratio is ≤ 0.25.

As for MPKE, the enrichment ratio was ≤ 0.25.

For QLTR, the enrichment ratio is ≤ 0.25.

With LQQY, the enrichment ratio is ≤ 0.25.

ECHI: the enrichment ratio is ≤ 0.25.

Take ECDS: the enrichment ratio is ≤ 0.25.

Take NFNI: the enrichment ratio was ≤ 0.25.

Take RQVG: the enrichment ratio is ≤ 0.25.

As for LRHF, the enrichment ratio was ≤ 0.25.

In the case of SANT, the enrichment ratio was ≤ 0.25.

With RPDS, the enrichment ratio is ≤ 0.25.

As to YPII, the enrichment ratio was ≤ 0.25.

Regarding TIEL, the enrichment ratio came out at 1.01.

As to RCPY, the enrichment ratio was ≤ 0.25.

Take FFAQ: the enrichment ratio is ≤ 0.25.

On to ELYD, for which the enrichment ratio is ≤ 0.25.

As to RPLP, the enrichment ratio was ≤ 0.25.

As to HSIS, the enrichment ratio was ≤ 0.25.

Consider EHCY, for which the enrichment ratio was ≤ 0.25.

Turning to YCAR, the enrichment ratio was ≤ 0.25.

Regarding GQDF, the enrichment ratio is ≤ 0.25.

With WMHR, the enrichment ratio was ≤ 0.25.

LLTE: the enrichment ratio was ≤ 0.25.

On to PKYE, for which the enrichment ratio was ≤ 0.25.

Regarding MFNL, the enrichment ratio is ≤ 0.25.

For the variant RTVK, the enrichment ratio is ≤ 0.25.

Consider PCDR, for which the enrichment ratio was ≤ 0.25.

For the variant RINS, the enrichment ratio was ≤ 0.25.

Take CFWI: the enrichment ratio was ≤ 0.25.

In the case of TEYP, the enrichment ratio was ≤ 0.25.

Consider WHSI, for which the enrichment ratio was ≤ 0.25.

MWFN: the enrichment ratio was ≤ 0.25.

On to HNNS, for which the enrichment ratio is ≤ 0.25.

Consider IWLC, for which the enrichment ratio was ≤ 0.25.

With PNDG, the enrichment ratio is ≤ 0.25.

In the case of TKRK, the enrichment ratio is ≤ 0.25.

With GETM, the enrichment ratio is ≤ 0.25.

As for RRTT, the enrichment ratio was ≤ 0.25.

With QPAL, the enrichment ratio was ≤ 0.25.

Turning to SWDK, the enrichment ratio is ≤ 0.25.

Turning to DDVR, the enrichment ratio was ≤ 0.25.

For the variant QPYL, the enrichment ratio is ≤ 0.25.

Consider GLRQ, for which the enrichment ratio is ≤ 0.25.

Consider QEAK, for which the enrichment ratio was ≤ 0.25.

For WEGI, the enrichment ratio was ≤ 0.25.

Take AGDF: the enrichment ratio is ≤ 0.25.

As to PRGA, the enrichment ratio is ≤ 0.25.

KKPW: the enrichment ratio is ≤ 0.25.

Regarding MDSR, the enrichment ratio is ≤ 0.25.

On to TTYF, for which the enrichment ratio was 3.17.

QQKW: the enrichment ratio is ≤ 0.25.

For TEIH, the enrichment ratio stood at 11.4.

For PNRD, the enrichment ratio was ≤ 0.25.

For MYIA, the enrichment ratio is ≤ 0.25.

With LYRH, the enrichment ratio was ≤ 0.25.

Turning to DKDA, the enrichment ratio was ≤ 0.25.

For the variant GVFW, the enrichment ratio was ≤ 0.25.

On to NDIC, for which the enrichment ratio was ≤ 0.25.

On to PISY, for which the enrichment ratio is ≤ 0.25.

Regarding AADL, the enrichment ratio is ≤ 0.25.

Take VMSG: the enrichment ratio was ≤ 0.25.

Consider DDRG, for which the enrichment ratio is ≤ 0.25.

As to QGCS, the enrichment ratio is ≤ 0.25.

As to TECG, the enrichment ratio was 15.7.

Regarding RWLD, the enrichment ratio was ≤ 0.25.

For the variant FSLA, the enrichment ratio was 6.09.

In the case of VLFF, the enrichment ratio was ≤ 0.25.

With LNWD, the enrichment ratio was ≤ 0.25.

AWPR: the enrichment ratio was ≤ 0.25.

Consider FMIH, for which the enrichment ratio was ≤ 0.25.

For the variant MLMS, the enrichment ratio was ≤ 0.25.

Regarding PHTC, the enrichment ratio was ≤ 0.25.

For the variant KRPV, the enrichment ratio is ≤ 0.25.

Take IAIP: the enrichment ratio is ≤ 0.25.

For the variant MLWN, the enrichment ratio was ≤ 0.25.

For the variant NPCR, the enrichment ratio was ≤ 0.25.

As to SQLH, the enrichment ratio was 8.37.

As to HTQG, the enrichment ratio was ≤ 0.25.

For GNDR, the enrichment ratio is ≤ 0.25.

For the variant GELF, the enrichment ratio is 9.93.

With RFCT, the enrichment ratio is ≤ 0.25.

Regarding ICIW, the enrichment ratio is ≤ 0.25.

Turning to IMWV, the enrichment ratio was ≤ 0.25.

Take TFCE: the enrichment ratio was ≤ 0.25.

Take SCSP: the enrichment ratio is ≤ 0.25.

In the case of AMFW, the enrichment ratio was ≤ 0.25.

With AEAF, the enrichment ratio was 5.

In the case of WYFM, the enrichment ratio was ≤ 0.25.

In the case of YHSW, the enrichment ratio is ≤ 0.25.

As for DDLC, the enrichment ratio was ≤ 0.25.

Consider IWHR, for which the enrichment ratio is ≤ 0.25.

As for TPPY, the enrichment ratio was ≤ 0.25.

FCCL: the enrichment ratio came out at 5.06.

Consider HKHS, for which the enrichment ratio was ≤ 0.25.

Regarding DIYW, the enrichment ratio is ≤ 0.25.

As for SIVE, the enrichment ratio was determined as 0.728.

In the case of NMGV, the enrichment ratio is ≤ 0.25.

As to YFHF, the enrichment ratio is ≤ 0.25.

For the variant TKLF, the enrichment ratio was found to be 18.

Turning to FLMM, the enrichment ratio came to 1.72.

Turning to STSQ, the enrichment ratio is 8.16.

Turning to NWYD, the enrichment ratio was ≤ 0.25.

In the case of LIME, the enrichment ratio is ≤ 0.25.

As to TQGC, the enrichment ratio amounted to 0.772.

In the case of DPRE, the enrichment ratio was ≤ 0.25.

Consider WCKS, for which the enrichment ratio is ≤ 0.25.

With VMCS, the enrichment ratio was ≤ 0.25.

In the case of YYVF, the enrichment ratio was ≤ 0.25.

Take SRTM: the enrichment ratio turned out to be 1.44.

For the variant NYSC, the enrichment ratio was ≤ 0.25.

As to DYFN, the enrichment ratio is ≤ 0.25.

Turning to FECS, the enrichment ratio came to 19.8.

In the case of QTDD, the enrichment ratio is ≤ 0.25.

On to IHGP, for which the enrichment ratio is ≤ 0.25.

With WDTG, the enrichment ratio was ≤ 0.25.

With SMKN, the enrichment ratio was ≤ 0.25.

Regarding NPMS, the enrichment ratio is ≤ 0.25.
